In all, about 340,000 compounds went through this assay and about 12,000 (3.5%) were called active. This list was built around the results that the source calls inconclusive (neither active nor inactive); the mix of calls is not that of the screen. Calls follow the shape of the dose curve; as a rule, active = well fitted inhibition curve with a large enough effect; inconclusive = small, poorly fitted or top-dose-only effect, or another doubt; inactive = no such curve, though single readings can be large or run the other way. Potencies of inconclusive entries are left out as doubtful fits.
Test: qHTS Assay for Inhibitors of Hepatitis C Virus (HCV)
Conditions: Huh7.5.1 HCVcc-Cre (HCVcc is cell-culture hepatitis C virus) infection, luciferase reporter, 44 h; activity change, negative = inhibition: at 41.8 µM (top of the series) unless noted
In short: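 Luciferase read-out (15 sec integration) after a 15 min room-temperature substrate step quantifies HCVcc-Cre infection. Cells, 1,000 per well, had compound added 4 h post-plating, then virus at ~0.5 moi, and were cultured 44 h.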
% is scaled to controls: 0 for no effect and ±100 for the full control effect; potency is read from the fitted curve at half-maximal effect; tags tell the direction and shape of the fitted curve.

Structure (SMILES) | Potency | activity change, negative = inhibition
COc1ccccc1OCc1cc(C(=O)N2CCN(C)C(c3ccccc3)C2)no1 (stereo not drawn) | inconclusive [inhibitor, single point] | –
COC(=O)c1cn(NC(=O)c2cc([N+](=O)[O-])ccc2F)c(=O)c2ccccc12 | inconclusive [inhibitor, partial curve] | –
CCC(CC)CN1CCN=C1Nc1ccccc1 | – | inactive: -11.5%
COc1ccc(OC)c(NC(=O)c2cc3c(cc2Cl)N2CCCCCC2=NS3(=O)=O)c1 | inconclusive [inhibitor, partial curve] | –
CC12CC(c3ccccc3O1)N(C(=O)c1ccco1)C(=S)N2c1ccc(F)cc1 (stereo not drawn) | active: 2.82 µM | –
CC(=O)Nc1ccc(Sc2ncccc2C(=O)Nc2ccc(F)cc2)cn1 | inconclusive [inhibitor, single point] | –
Cc1ccc(C(=O)CSc2nnc(-c3ccco3)n2Cc2ccccc2)cc1 | inconclusive [inhibitor, full curve, poor fit] | –
Cc1ccc(S(=O)(=O)N2CCCCC2)cc1NC(=O)COc1ccccc1 | inconclusive [inhibitor, partial curve] | –
Cc1ccccc1NC(=O)/C(C#N)=C\c1ccsc1 | inconclusive [inhibitor, partial curve] | –
COC(=O)C1=C(c2cccc(OCc3ccccc3)c2)C[C@@H]2CC[C@H]1N2C(=O)NCc1ccc(OC)cc1 | active: 22.4 µM | –
CCOc1ccc(-c2nn(-c3ccccc3)cc2/C=C(\C#N)S(=O)(=O)c2ccccc2)cc1C | inconclusive [inhibitor, partial curve] | –
N=c1c(S(=O)(=O)c2ccccc2)cc2c(=O)n3ccccc3nc2n1CC1CCCO1 (stereo not drawn) | inconclusive [inhibitor, single point] | –
O=C(NCCc1ccccc1)c1ccc(-c2ccc(F)cc2)o1 | – | inactive: -18.1%
O=C(NCCc1cscn1)C1CCC(=O)N(Cc2ccc(Cl)cc2)C1 (stereo not drawn) | – | inactive: 33.6%
CC(=O)Nc1ccc(NC(=O)C(C)OC(=O)c2oc3ccccc3c2C)cc1 (stereo not drawn) | inconclusive [inhibitor, single point] | –
CN(C)S(=O)(=O)c1cccc(NC(=O)CSc2nnnn2-c2ccccc2)c1 | inconclusive [inhibitor, partial curve] | –
O=C(Cn1ccc(NC(=O)OCc2ccccc2)nc1=O)NCCCN1CCCC1=O | – | inactive: 46.7%
O=C(NC1CC1)c1cccc(NC(=O)c2cc(S(=O)(=O)N3CCOCC3)ccc2Cl)c1 | inconclusive [inhibitor, partial curve] | –
CCOC(=O)c1sc(=S)n(-c2cc(F)ccc2F)c1N | – | inactive: -26%
CCOc1ccc(NC(=O)N2CCC(n3nnc4cc(C)ccc43)CC2)cc1 | inconclusive [inhibitor, full curve] | –
CCc1cc2c(SCC(=O)c3cccs3)ncnc2s1 | inconclusive [inhibitor, partial curve] | –
O=C(NCCn1cc(SCc2ccccc2F)c2ccccc21)c1c(F)cccc1F | inconclusive [inhibitor, partial curve] | –
CN1CC(=O)N(CC(=O)NCc2ccc3c(c2)OCO3)C1=O | – | inactive: 14.2%

Structure (SMILES) | Potency | activity change, negative = inhibition
O=C(Nc1cccc([N+](=O)[O-])c1)c1cccc(C(=O)Nc2cccc([N+](=O)[O-])c2)c1 | – | inactive: 0.0959%
O=C(Nc1ccc2c(c1)CCC2)c1cnn2c1NC(c1ccco1)CC2C(F)(F)F (stereo not drawn) | inconclusive [inhibitor, single point] | –
CCc1cc(C(=O)N/N=C/c2ccc(O)cc2O)c2ccccc2n1 | inconclusive [inhibitor, single point] | –
N#C/C(=C\c1c[nH]c2ccc(Br)cc12)c1ccccn1 | active: 11.2 µM | –
CC(=O)N1c2ccc(S(=O)(=O)N3CCC(C(=O)N4CCCCC4)CC3)cc2CC1C (stereo not drawn) | inconclusive [inhibitor, single point] | –
CCCN1C/C(=C/c2ccc3c(c2)OCO3)C(=O)/C(=C/c2ccc3c(c2)OCO3)C1 | inconclusive [inhibitor, full curve, poor fit] | –
COc1cc2c(cc1NC(=O)CCCN1C(=O)CCC1=O)oc1ccccc12 | active: 11.2 µM | –
Oc1ccc2ccccc2c1C=Nc1ccccc1-c1nc2ccccc2[nH]1 | active: 11.2 µM | –
Cc1c(C(=O)N2CCCCC2)oc2ccc(S(=O)(=O)N3CC(C)CC(C)C3)cc12 (stereo not drawn) | inconclusive [inhibitor, partial curve] | –
O=C(CCc1ccccc1O)N/N=C/c1ccc(Sc2cccc3cccnc23)o1 | inconclusive [inhibitor, single point] | –
COc1ccc(/C=N/NC(=O)c2ccc3ccccc3c2)cc1OS(=O)(=O)c1ccc(NC(C)=O)cc1 | inconclusive [inhibitor, full curve, poor fit] | –
CC[C@@H](C)C(NC(=O)OC(C)(C)C)c1cn([C@@H](Cc2cc3ccccc3[nH]2)C(=O)N2CCN(C(=O)OC(C)(C)C)CC2)nn1 (stereo partly drawn) | inconclusive [inhibitor, partial curve] | –
CCc1c(C)sc2nc(C(C)C)nc(SCC(=O)N3CCc4ccccc4C3)c12 | inconclusive [inhibitor, single point] | –
Cc1ccc(Nc2nnc(SCC(=O)Nc3ccccc3[N+](=O)[O-])s2)cc1 | – | inactive: -0.802%
COc1ccc(CN2CCCC(CO)(Cc3ccc(F)cc3F)C2)cc1 (stereo not drawn) | – | inactive: 0.885%
Cc1ccc(C(=O)O/N=C\c2ccc(N3CCOCC3)c([N+](=O)[O-])c2)cc1 | inconclusive [inhibitor, single point] | –
O=C(NNC(=O)c1ccccc1)C(=O)N1CCCCC1 | – | inactive: 19.9%
CCOC(=O)c1c(NC(=O)CSc2nc3ccc(C)cc3[nH]2)sc2c1CC(C)(C)NC2(C)C | active: 6.31 µM | –
S=C(Nc1ccc(Cl)cc1)Nc1ccc2cn[nH]c2c1 | inconclusive [inhibitor, partial curve] | –
CCOc1ccc(C(Nc2cccnc2)c2cc(Cl)c3cccnc3c2O)cc1 (stereo not drawn) | inconclusive [inhibitor, partial curve] | –
Cc1cc(Cl)c2oc(C(=O)N(C)CCc3cnn(C)c3)c(C)c2c1 | inconclusive [inhibitor, single point] | –
CC(=O)NC(c1cccc([N+](=O)[O-])c1)c1ccc2cccnc2c1O (stereo not drawn) | active: 1.78 µM | –
O=C(Nc1cccc(Cl)c1)N1CCSc2cc(Cl)ccc21 | inconclusive [inhibitor, single point] | –

Structure (SMILES) | Potency | activity change, negative = inhibition
CC[C@H](C)Cc1cn([C@@H](CCCCNC(=O)OC(C)(C)C)C(=O)NCCCCCCCCCCC(=O)N2CCN(C(=O)OC(C)(C)C)CC2)nn1 | inconclusive [inhibitor, full curve] | –
Cc1ccc(-c2nnc(N)o2)cc1 | – | inactive: 15.3%
Cc1ccc(S(=O)(=O)n2ccc(-c3ccc(OCc4c(F)cccc4Cl)cc3)n2)cc1 | inconclusive [inhibitor, single point] | –
O=C(Nc1ccc([N+](=O)[O-])cc1)C(=O)Nc1cccc(C(=O)O)c1 | – | inactive: 3.78%
Cc1ccc(Oc2nc3c(c(=O)n(Cc4ccccc4F)c(=O)n3C)n2C)cc1 | – | inactive: -11.4%
Cc1ccc(O)c(NC(=O)c2cc(-c3ccccc3)on2)c1 | – | inactive: -26.8%
COc1ccc(-c2nc(C#N)c(NC(C)c3ccccc3)o2)cc1OC (stereo not drawn) | inconclusive [inhibitor, partial curve] | –
COc1ccc(NC(=O)Nc2cccc3c2O[C@H](CN(C)C(=O)NC(C)C)[C@@H](C)CN([C@H](C)CO)C3=O)cc1 | – | inactive: -4.98%
Cc1cccc(N2CCN(C(=O)COc3cccc4c3OC(C)(C)C4)CC2)c1C | inconclusive [inhibitor, single point] | –
Cc1ccc(N=Nc2ccc(N)cc2C)c(S(N)(=O)=O)c1 | inconclusive [inhibitor, partial curve] | –
COc1ccc(CC(NC(C)=O)C(=O)NC2CCN(S(=O)(=O)c3ccc(NC(C)=O)cc3)CC2)cc1 (stereo not drawn) | – | inactive: -6.97%
Cc1ccc(-c2cc(C(=O)N3CCN(c4ccc(O)cc4)CC3)c3ccccc3n2)cc1 | inconclusive [inhibitor, single point] | –
COc1ccc2c(/C=C/c3cc[n+](C)cc3)c[nH]c2c1 | inconclusive [inhibitor, full curve] | –
Cc1ccc(OCCNC(=O)c2cc(C3CC3)nc3c2cnn3C(C)C)cc1 | active: 12.6 µM | –
Cc1ccc(S(=O)(=O)Nc2ccccc2CNc2ccc(Br)cn2)cc1 | inconclusive [inhibitor, single point] | –
O=C(NCCN1CCOCC1)c1sc2cc(Cl)ccc2c1Cl | inconclusive [inhibitor, partial curve] | –
CC(=O)Nc1cc2c3c(c1)CCC(=O)N3CCC2 | – | inactive: 2.73%
CCOC(=O)N1CCc2c(sc(NC(C)=O)c2C(N)=O)C1 | – | inactive: -0.263%
Nc1c(C(=O)Nc2nccs2)sc2nc(-c3cccs3)cc(C(F)(F)F)c12 | – | inactive: -10.6%
COc1ccc(C(=O)Nc2ccc(-c3ccc(NC(=O)c4ccc(OC)cc4)c(OC)c3)cc2OC)cc1 | inconclusive [inhibitor, full curve] | –
Cc1ccc(CCNC(=O)c2nnn(-c3cccc(C)c3)c2N)cc1 | inconclusive [inhibitor, partial curve, poor fit] | –
N#CCC(=O)N/N=C/c1ccc(OS(=O)(=O)c2ccccc2)cc1 | inconclusive [inhibitor, partial curve] | –
